Source: the supplement of paper PMC3334620
Whole data set: some 33,000 sequences, median “E-score (-0.5 to 0.5)” near -0.035, cut for the highest 2% near 0.34. This is one part of the list.

What follows are sequences tested against T1, Mot3 (UniProt P54785) (assay: PBM E-score (8-mer binding enrichment) (E-score (-0.5 to 0.5)); higher = stronger / more preferred TF binding; most listed sequences are background and not binding sites). Settings: protein concentration: 200 nM; construct: GST-full length.
T1 sequence: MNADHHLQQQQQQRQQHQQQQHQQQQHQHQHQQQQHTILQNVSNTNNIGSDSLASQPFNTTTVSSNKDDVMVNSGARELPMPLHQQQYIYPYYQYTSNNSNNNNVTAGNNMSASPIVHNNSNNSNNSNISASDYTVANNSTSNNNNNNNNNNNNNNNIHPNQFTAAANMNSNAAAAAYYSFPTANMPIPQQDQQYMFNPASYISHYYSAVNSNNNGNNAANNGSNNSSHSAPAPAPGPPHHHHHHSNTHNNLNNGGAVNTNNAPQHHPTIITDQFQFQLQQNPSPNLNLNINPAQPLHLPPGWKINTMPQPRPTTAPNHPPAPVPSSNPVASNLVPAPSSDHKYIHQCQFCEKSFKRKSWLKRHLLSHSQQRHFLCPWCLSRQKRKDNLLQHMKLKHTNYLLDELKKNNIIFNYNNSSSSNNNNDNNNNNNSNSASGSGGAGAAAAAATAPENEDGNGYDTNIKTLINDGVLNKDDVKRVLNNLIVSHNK
Procedure, shortened: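 Yeast transcription factors, full-length or as DNA-binding domains, were expressed with a GST tag using PURExpress in vitro transcription/translation. At about 100-200 nM they were applied to universal all-10-mer Agilent arrays, double-stranded by primer extension on fresh or once-stripped slides. Fluorescent anti-GST detected bound protein, and masliner normalised the scans. E-scores for ungapped eight-base words, pooled with reverse complements, came from the Universal PBM Analysis Suite.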

| Sequence | PBM E-score |
| --- | --- |
| GGCACCCA | 0.29 |
| CTACACAA | 0.29 |
| CGCTCCCA | -0.432 |
| CCTAACTA | 0.0311 |
| GACAGGGA | -0.089 |
| CGAGTTAG | 0.0759 |
| CCCGTAGG | 0.0504 |
| AAAGCGTT | -0.0184 |
| AGCGGGAC | -0.177 |
| GATTACGA | 0.197 |
| GCAGTGGA | -0.212 |
| ACACTTAG | 0.126 |
| ATGAATCG | -0.0323 |
| GAAAGCAC | 0.123 |
| AAGGCTAA | 0.035 |
| GATGGAGC | -0.0215 |
| GACTGCCC | 0.0754 |
| ATGGAAAC | -0.255 |
| CACTGGGG | -0.0515 |
| CAGACAAA | 0.171 |
| ATACCCGG | 0.0542 |
| GCATAACC | -0.197 |
| CAAGAGTC | -0.0245 |
| ACATTCTG | 0.0247 |
| GTTTGTAA | 0.223 |

| Sequence | PBM E-score |
| --- | --- |
| CCCAGATC | -0.111 |
| CACAATGC | 0.104 |
| AACCGCCC | -0.0284 |
| GCGTCGTA | 0.0968 |
| CCTGCAGA | 0.303 |
| CCCACACC | -0.149 |
| ACTACTCC | -0.13 |
| GATGTATA | 0.195 |
| TCCTGGAA | 0.0485 |
| AGGTGACC | 0.0102 |
| AGCAGCAT | -0.212 |
| CGAGCTGA | -0.201 |
| GGTGTTCA | 0.012 |
| AATCGAGC | -0.092 |
| CTGACGGA | -0.0993 |
| ACACCAAG | 0.132 |
| CCTTCACA | 0.208 |
| CACGGCGA | 0.117 |
| CCAAGGGA | -0.275 |
| AACTTCTG | 0.00551 |
| CCGCGTAC | 0.16 |
| ACCGACGC | 0.114 |
| GCTAAGGA | -0.0929 |
| ACCCGCCG | -0.166 |
| CGCACTGA | -0.0968 |

| Sequence | PBM E-score |
| --- | --- |
| ACAGGACA | 0.111 |
| TACGAATA | 0.15 |
| CGACAGCG | -0.196 |
| GGACACTA | -0.102 |
| AGTATCGA | 0.122 |
| ACACCCAA | 0.0638 |
| AGGCATTG | 0.264 |
| ACTTTTGC | 0.0944 |
| GTACCTAC | 0.405 |
| CTCACCGA | -0.354 |
| ACCTGTTA | 0.167 |
| AAGTTGCT | 0.0629 |
| AGACTAGC | -0.219 |
| CTAGCGTA | -0.0757 |
| AATGTGAG | 0.0557 |
| GTTTAAAA | 0.158 |
| ATGTCACA | 0.233 |
| TGATGGAA | 0.0632 |
| AAGACTAA | -0.0119 |
| ATCTCGCA | 0.0827 |
| TCAGCCAA | -0.192 |
| AGAATGCG | -0.0435 |
| AGCAGCCG | -0.096 |
| CGAAGGCA | 0.476 |
| ATGTTGGC | 0.0881 |

| Sequence | PBM E-score |
| --- | --- |
| AAGTGACC | -0.22 |
| CCAACTTA | -0.0588 |
| GAAGCTGC | -0.0719 |
| ATTTCAGG | 0.129 |
| GCCATTGA | -0.165 |
| CTCTTGGC | -0.273 |
| CGCGTCAC | 0.0523 |
| CCTTTGAC | 0.125 |
| ATCCCAAC | -0.0736 |
| CAAAACTG | -0.0699 |
| AAAGTCGT | -0.0973 |
| AAGCGGCT | -0.272 |
| ACGAAAAC | 0.109 |
| CTGGCTTC | -0.194 |
| CTATCGTC | -0.142 |
| ATCATAGA | 0.156 |
| TAGCGCTA | -0.153 |
| ATCGGTAC | -0.0819 |
| AAGGACGT | 0.0581 |
| TATGGGGA | -0.00446 |
| ACATGCCG | 0.226 |
| GACCTTCA | -0.083 |
| ACAGCTCG | -0.105 |
| CGACTGCC | -0.0133 |
| ATTAAACG | 0.312 |

| Sequence | PBM E-score |
| --- | --- |
| CTAGTAAA | 0.196 |
| ACAGGCGA | 0.0648 |
| GCTCGGAC | -0.172 |
| ATTCTTGC | -0.015 |
| CGTCTGCC | -0.201 |
| ACACCCGG | 0.0756 |
| AGTTGCAT | -0.00698 |
| ACATTTCA | 0.143 |
| ATAGTTCA | 0.0151 |
| AATCCCGA | -0.0874 |
| ATAATGCA | 0.0624 |
| GCCGGAAC | -0.32 |
| CTTGCTCA | -0.16 |
| ACATACAT | 0.339 |
| CGCAGCAC | -0.206 |
| AGAGCATA | -0.0148 |
| AATATGGG | -0.176 |
| CGTGGAAA | 0.0506 |
| ACAGCAAA | 0.143 |
| ACGGCGCG | -0.00385 |
| ATAGCCGC | -0.244 |
| CGTCGACC | -0.0924 |
| ACTCCATA | -0.0826 |
| CACCGCAG | 0.0392 |
| GTAGCAAC | -0.0958 |

| Sequence | PBM E-score |
| --- | --- |
| CACGTTGG | 0.0927 |
| CGTTTAGA | 0.0393 |
| GAGCGCCA | -0.362 |
| CTTACACA | 0.3 |
| GTCACCCA | -0.07 |
| AACAGGCA | 0.484 |
| CTGGAATA | -0.0588 |
| GATATATC | -0.153 |
| ACTGAGTA | 0.0419 |
| GTCCACAC | 0.0444 |
| AACTACGC | 0.18 |
| AAGACCAG | -0.0179 |
| CGATTTTA | 0.0315 |
| CCGTGAAC | -0.126 |
| CGCGAATA | 0.0877 |
| CAGAAATC | -0.0143 |
| CAGACGTC | -0.141 |
| ACCCACAG | -0.155 |
| ATCAAGTC | -0.0213 |
| AGTCTCTG | -0.257 |
| ACACACCG | 0.223 |
| AGAAAATC | -0.0262 |
| AGATCGAT | -0.0453 |
| ACGATTTC | 0.166 |
| CAGCGGGA | -0.278 |

| Sequence | PBM E-score |
| --- | --- |
| ACGATCTC | -0.198 |
| ATATCGAA | 0.0326 |
| AAGAAAAC | -0.0102 |
| ATACGGAC | -0.112 |
| CTATGTCC | -0.0601 |
| CCTGGTTC | 0.049 |
| AAGGTTCT | 0.127 |
| AGAAGCAT | -0.0427 |
| CGTAATGC | 0.201 |
| TCAAGAAA | 0.102 |
| AATACCTA | 0.22 |
| CACCAAGG | -0.00468 |
| GAGAAAAA | 0.07 |
| TCCGGTAA | 0.138 |
| ATTCGATA | 0.0323 |
| CAAGACGC | -0.082 |
| GGAAAAAA | 0.144 |
| ATGCTACC | -0.133 |
| AAAGCGAT | 0.07 |
| CGCTACAG | -0.141 |
| GCAGGTAC | 0.452 |
| ACCATGGG | -0.316 |
